Reference: patent publication US8012466B2, “Immunogenic compositions for activating γδ T cells” (priority 2008, dated 2011)

Assays:
[1] = system: Vγ2Vδ2 T cells
[2] = system: Vγ2Vδ2 T cells; test: In vitro HMBPP response of rhesus monkey PBMC; type: cell-based; conditions: PBMC stimulated with 100 nM HMBPP
Excerpt: FIG. 7. Characteristics of rhesus monkey Vγ2Vδ2 T cells. (A). Large in vitro HMBPP responses by Vγ2Vδ2 T cells from most rhesus monkeys. […] (B). Uniform memory subset distribution of rhesus monkey Vγ2Vδ2 T cells. PBMC from 22 monkeys were stained for Vδ2, […], and […]. Vδ2^+ cells were divided in 4 groups based on their expression of CD28 and CD27.
Memory subset distribution and HMBPP response of rhesus monkey Vγ2Vδ2 T cells—In preparation for in vivo immunization of rhesus monkey, we screened 33 monkeys for their ability to respond to HMBPP in vitro, γδ T cells levels, V gene expression, and memory subset distribution. […] Like human Vγ2Vδ2 T cells, monkey Vγ2Vδ2 T cells also could be divided into 4 subsets based on expression of CD28 and CD27 (TEarly=central memory=CD28^+27^+, TEarly CD27−=CD28^+27^−, TIntermediate=CD28^−27^+, and TLate CD45RA+=CD28^−27^−). However, unlike human donors, there were very few monkeys with a predominance of the TLate RA subset. Moreover, whereas Vγ2Vδ2 T cells constituted 73% of human adult γδ T cells, Vγ2Vδ2 T cells constituted only 29% of monkey γδ T cells consistent with our earlier study. […]

Compound: O=P(O)(O)C(O)(Cc1cccnc1)P(=O)(O)O [risedronate]
- in vivo expansion of Vγ2Vδ2 T cells by direct immunization ([1]; unactivated PBMC, rIL-2 5000 IU i.p. every other day, day 9): also expanded Vγ2Vδ2 T cells

Compound: C/C(=C\COP(=O)(O)OP(=O)(O)O)CO [HMBPP, (E)-4-hydroxy-3-methyl-but-2-enyl pyrophosphate]
- Expansion of Vγ2Vδ2 T cells [2]: > 40%

Compound: IL-15: γC cytokine tested in place of IL-2
- support of Vγ2Vδ2 T cell expansion by cytokine ([1]; human memory Vγ2Vδ2 T cells, compared with IL-2 and IL-7, data not shown): able to support homeostatic expansion of Vγ2Vδ2 T cells in the absence of antigen and higher levels of expansion of Vγ2Vδ2 T cells with HMBPP
